The other results are listed elsewhere or left out.

The test system of this assay is S. aureus RN4220. Put plainly: growth inhibition call (relative growth <= 0.2). To be noted: 50 µM.
As to `COc1ccc(CN(C)C[C@@H]2Oc3ccc(NC(=O)Cn4cnnn4)cc3CC(=O)N([C@@H](C)CO)C[C@H]2C)cc1`, the growth inhibition call was “inactive”.

For the compound `C[C@H]1CN([C@@H](C)CO)C(=O)Cc2cc(NS(=O)(=O)c3cn(C)cn3)ccc2O[C@H]1CN(C)C(=O)NC1CCCCC1`, the growth inhibition call was “inactive”.

For the compound `COc1cc([C@@H]2[C@H]3CO[C@@]4(O)C(=O)[C@@H]2C=C([C@H]2Oc5cc(O)cc(O)c5C(=O)[C@@H]2O)[C@@H]34)ccc1O`, the growth inhibition call is “inactive”.

Regarding `N[C@H]1CCN(c2nc3c(cc2F)c(=O)c(C(=O)O)cn3-c2ccc(F)cc2F)C1`, the growth inhibition call was “active”.

Consider `COc1ccc(-c2cnc3c(c2)C(=O)N([C@@H](C)CO)C[C@H](C)[C@@H](CN(C)C(=O)Cc2ccncc2)O3)cc1`, for which the growth inhibition call was “inactive”.

Regarding `C[C@H](CO)N1C[C@H](C)[C@H](CN(C)C(=O)Nc2ccc(F)cc2)Oc2ncc(-c3cc4ccccc4o3)cc2C1=O`, the growth inhibition call is “inactive”.

On to `C[C@H]1CC=CC[C@@H](c2ccc3c(c2)OCO3)NC(=O)[C@H](Cc2ccccc2)N(C)C(=O)c2ccccc2O1`, for which the growth inhibition call was “inactive”.

For the compound `C[C@H](CO)N1C[C@H](C)[C@H](CN(C)CC2CCOCC2)Oc2cc(C#Cc3ccccc3F)ccc2S1(=O)=O`, the growth inhibition call is “inactive”.

As to `C[C@H](CO)N1C[C@H](C)[C@H](CN(C)CC2CCCCC2)Oc2ccc(NC(=O)Nc3ccc(C(F)(F)F)cc3)cc2C1=O`, the growth inhibition call was “active”.

For the compound `Cc1noc(C)c1S(=O)(=O)Nc1ccc2c(c1)CC(=O)N([C@H](C)CO)C[C@@H](C)[C@@H](CN(C)Cc1ccccc1)O2`, the growth inhibition call was “inactive”.

Take `Cc1ccc(S(=O)(=O)Nc2ccc3c(c2)C(=O)N([C@H](C)CO)C[C@H](C)[C@H](CN(C)S(=O)(=O)c2c(C)noc2C)O3)cc1`: the growth inhibition call was “inactive”.

`O=C(C[C@H]1C=C[C@@H](NS(=O)(=O)c2ccccc2F)[C@@H](CO)O1)NCCCN1CCOCC1`: the growth inhibition call is “inactive”.

As for `COc1ccc(NC(=O)N(C)C[C@@H]2Oc3c(NS(C)(=O)=O)cccc3C(=O)N([C@@H](C)CO)C[C@@H]2C)cc1`, the growth inhibition call was “inactive”.

For `Cc1ccc(S(=O)(=O)Nc2ccc3c(c2)C(=O)N([C@@H](C)CO)C[C@@H](C)[C@@H](CN(C)Cc2ccc(Cl)c(Cl)c2)O3)cc1`, the growth inhibition call is “inactive”.

For `COc1ccc(C(=O)Nc2ccc3c(c2)C(=O)N(C)[C@H]2CC[C@H](CC(=O)NCC4CC4)O[C@H]2CO3)cc1`, the growth inhibition call is “inactive”.

Regarding `CN(C)CC#Cc1ccc([C@H]2[C@H]3CN(C(=O)CN(C)C)CC(=O)N3[C@H]2CO)cc1`, the growth inhibition call is “inactive”.

`C[C@H](CO)N1C[C@H](C)[C@H](CN(C)S(=O)(=O)c2cn(C)cn2)Oc2c(NC(=O)c3ccncc3)cccc2C1=O`: the growth inhibition call is “inactive”.

As for `C[C@H]1CN([C@@H](C)CO)C(=O)c2cccc(NS(=O)(=O)c3ccc(Cl)cc3)c2O[C@@H]1CN(C)Cc1ccc(C(=O)Nc2ccccc2N)cc1`, the growth inhibition call is “inactive”.

As to `Cc1noc(C)c1NC(=O)Nc1cccc2c1O[C@H](CN(C)C(=O)NC(C)C)[C@@H](C)CN([C@@H](C)CO)C2=O`, the growth inhibition call is “inactive”.

For `O=C(C[C@@H]1C[C@@H]2c3cc(NC(=O)C4CCOCC4)ccc3O[C@@H]2[C@@H](CO)O1)NCc1ccc2c(c1)OCO2`, the growth inhibition call was “inactive”.

Turning to `C[C@H](O)C(=O)Nc1c(I)c(C(=O)NC(CO)CO)c(I)c(C(=O)NC(CO)CO)c1I`, the growth inhibition call is “inactive”.

In the case of `CCOC(=O)c1nnn(-c2nonc2N)c1CN1CCSCC1`, the growth inhibition call is “inactive”.

On to `C[C@H](CO)N1C[C@H](C)[C@H](CN(C)Cc2ccc(-c3ccccc3)cc2)Oc2c(NC(=O)C3CCOCC3)cccc2C1=O`, for which the growth inhibition call was “inactive”.

Regarding `C[C@@H]1CN([C@@H](C)CO)C(=O)c2cc(C#CC(C)(C)O)cnc2O[C@H]1CN(C)C(=O)CN(C)C`, the growth inhibition call is “inactive”.

Take `COc1ccc(NC(=O)N(C)C[C@H]2Oc3c(NC(=O)Nc4ccc(C(F)(F)F)cc4)cccc3C(=O)N([C@H](C)CO)C[C@H]2C)cc1`: the growth inhibition call was “inactive”.

Take `O=C(/C=N/O)NCc1ccccn1`: the growth inhibition call is “inactive”.

As to `C[C@@H]1CCCCO[C@H](CN(C)C(=O)Nc2ccc3c(c2)OCO3)[C@H](C)CN([C@H](C)CO)C(=O)c2cc(NC(=O)C3CCCCC3)ccc2O1`, the growth inhibition call is “inactive”.

With `CCN1CCCC[C@@H]1C(=O)O`, the growth inhibition call is “inactive”.
